Whole data set: some 81,000 sequences, median “one-hybrid fitness for binding parS DNA” near -0.17, cut for the highest 2% near 0.51. This is one part of the list.
B1: Caulobacter ParB omega fusion; a variant is named by its letters at X, in order, B8GW30 (parent)
chain: MESVVVGEPGMSEGRRGLGRGLSALLGEVDAAPAQAPGEQLGGSREAPIEILQRNPDQPRRTFREEDLEDLSNSIREKGVLQPILVRPSPDTAGEYQIVAGERAWRAAQRAGLKTVPIMVRELDDLAVLEIGIIENVQRADLNVLEEALSYKVLMEKFERTQENIAQTIGKSXSHVANXMRLLXLPDEVQSYLVSGELTAXHARAIAAAADPVALAKQIIEGGLSVRETEALARKAPNLSAGKSKGGRPPRVKDTDTQALESDLSSVLGLDVSIDHRGSTGTLTITYATLEQLDDLCNRLTRGI

Variants of: B1
Assay: one-hybrid fitness for binding parS DNA (scaled: cognate 1, non-cognate 0); higher = stronger binding
Conditions: with parS DNA site
Outline: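 Bacterial one-hybrid selection in E. coli USO rpoZ- hisB- pyrF- with a HIS3 reporter carrying the site 19 bp from the promoter, screening Caulobacter ParB libraries with four specificity codons randomised (NNS). Cells grew 48 hours at 37°C on M9-minus-histidine plus 0.1 mM IPTG and 5 mM 3-AT. Plasmids before and after selection were Illumina-sequenced, three replicate libraries pooled, and variants under 10 reads dropped. Fitness is the log change in variant-to-wild-type read ratio, rescaled to cognate 1, non-cognate 0.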

one-hybrid fitness for binding parS DNA, 0.612:
RNCT

one-hybrid fitness for binding parS DNA, 0.26:
QYQT

one-hybrid fitness for binding parS DNA, ≤ 0.2:
PNSG
PPAT
NCAA
PYKG
HQPM
FYAL
SDLL
QVNV
AYAC
GMSC
DGTC
TLGD
GGRL
TWYF
QTHN
HPFG
HSNS
WTDK
RCEP
SVVV
TLIL
THRP
KTKA
HPLY
ATRL
KVHG
QSPR
RCCD
THHK
MDQS
TKMG
SRKY
CVRA
CVDQ
KDTG
GKHY
SYRW
YMWS
MCPA
PSVR
CVSN
RCTL
CWNE
EIAH
PKVG
KRPL
IKIG
YAIR
NDHF
IVRT
WDLG
GQYA
HQCS
INKE
THMI
CRLW
RDDS
NPRL
HEAY
GVHD
NPDE
HHSN
KKKW
EVSS
NTIC
NLHR
CHET
GPRY
ERKS
SFSP
AVLC
KRQT
YLPQ
SEPE
LTLN
VGRS
RDTE
VHCW
TTGW
QVGI
ADDY
NDQM
MSLQ
IKAG
NVHC
LKLM
RKNK
IVTV
KPPR
QYFT
FMEL
MLLT
MAHK
SKSM
KIRE
SHRI
SLLS
WHKR
MRSP
TEFE
SMSQ
AMFT
HNRS
MYVS
FWRT
QWKY
LTLE
PHFL
KTQE
HNLP
KRNW
APGK
TLRV
YIGL
VFNG
LTCT
FNHT
IKCW
QKFF
HFME
GPRN
KKDH
IASS
VYLR
RWCL
NHSI
SQSR
YCKL
GAEV
MDSV
PTPE
HRFD
SLSD
KNLC
KPHT
NNTW
QLLS
EFMW
VVPG
SCYP
RLNV
KMRL
GSLN
ITNA
NTLM
RYPV
LQAS

one-hybrid fitness for binding parS DNA, 0.205:
IVSS

one-hybrid fitness for binding parS DNA, 0.66:
REKS

one-hybrid fitness for binding parS DNA, 0.242:
RNKF

one-hybrid fitness for binding parS DNA, 0.932:
RGRS
